The record followed here is PubChem BioAssay AID1508623 (National Center for Advancing Translational Sciences (NCATS), 2021).

Each structure is given as a SMILES string. The campaign covered roughly 48,000 compounds. About 450 (0.94%) were called active. Roughly 19% stayed inconclusive and do not appear here. Calls follow the shape of the dose curve; as a rule, active = well fitted inhibition curve with a large enough effect; inconclusive = small, poorly fitted or top-dose-only effect; inactive = no such curve, though single readings can be large or run the other way. The list shows a part of the results.

This test in a line: Primary qHTS for Identification of Small Molecule Inhibitors of Huntingtin Promoter Activity. Also: nearly all actives have a fitted effect of over 50% in size. Particulars: HEK293 HTT promoter firefly luciferase reporter (activity 0% = vehicle and -100% = no light), 24 h; series mostly up to 57.5 µM; activity change, negative = inhibition: at the top concentration. Put shortly:
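Firefly luciferase readout (Dual-Glo, 10 min RT) after 24 h, 37 °C compound exposure (final up to 57.5 uM) of HEK293 reporter cells cultured 24 h beforehand; PTC124 at 50 uM final as control inhibitor; activity scaled vehicle 0%, zero RLU -100%.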
In general terms: qHTS replaces the single test concentration by a dilution series.
In the case of `COC(=O)c1c(N)n(-c2ccc(OC)c(OC)c2)c2nc3ccccc3nc12`, the “activity change, negative = inhibition” value was inactive: -2.82%. On to `N#Cc1nc(-c2ccc(COc3ccccc3)o2)oc1N1CCCCC1`, for which the “activity change, negative = inhibition” value was inactive: -31%. To `Cc1ccccc1NC(=O)Cn1c(=O)n(Cc2ccccc2)c(=O)c2c(C)c(C)sc21` belongs inactive: -1.87%; to `CCC(Sc1nnc2c3ccccc3n(CC)c2n1)C(=O)Nc1nnc(C(C)C)s1` (configuration not stated), inactive: -12.6%; to `COc1ccc(-c2cc3nc(C4CCN(C(=O)OC(C)(C)C)CC4)c(C(=O)Nc4cc(C)cc(C)c4)cn3n2)cc1`, inactive: -17.8%. As for `Cn1c(=O)cc(SCC(=O)N2CCN(c3ccccc3F)CC2)c2ccccc21`, the figure is inactive: -10%. On to `CCCN1CCN(CCCNC(=O)c2ccc3nc(Cc4ccccc4)oc3c2)CC1`, for which the “activity change, negative = inhibition” value is inactive: -17.4%. Turning to `CCOc1ccc(CN(CCc2ccc3c(c2)OCO3)Cc2cc(OC)c(OC)cc2OC)cc1`, the “activity change, negative = inhibition” value was inactive: -18.3%. As to `COc1ccc(C)cc1NC(=O)c1cc(S(=O)(=O)N2CCCCC2)c[nH]1`, the “activity change, negative = inhibition” value was inactive: -22.5%.

Regarding `Cc1cc(C)cc(NC(=O)CCCc2nc(-c3ccco3)no2)c1`, the “activity change, negative = inhibition” value is inactive: -22.1%. Consider `Cc1cc(-n2c(C)nc3ccccc3c2=O)ccc1NC(=O)c1ccccc1[N+](=O)[O-]`, for which the “activity change, negative = inhibition” value was inactive: -8.11%.

Consider `O=C(CCSCCc1ccccn1)Nc1ccccc1C(F)(F)F`, for which the “activity change, negative = inhibition” value was inactive: -19.3%. To `CCc1ccccc1NC(=O)Cn1cc(C(=O)c2ccncc2)c(=O)c2cc(C)ccc21` belongs inactive: 0.759%.

In the case of `COc1ccc(CCNC(=O)c2cc(-c3ccc(C)cc3)nc3n[nH]c(-c4ccc(F)cc4)c23)cc1OC`, the “activity change, negative = inhibition” value is inactive: -18.2%. On to `O=C(COCc1cc(-c2ccc(F)cc2)on1)Nc1cc(Cl)cc(Cl)c1`, for which the “activity change, negative = inhibition” value was inactive: -16.8%. In the case of `O=C(CCSCc1cccc(F)c1)NCCc1ccccc1`, the “activity change, negative = inhibition” value was inactive: 3.56%.

On to `Cc1ccc(N2CC(C(=O)NCCS(=O)(=O)N3CCN(c4ccc(F)cc4)CC3)CC2=O)cc1` (configuration not stated), for which the “activity change, negative = inhibition” value is inactive: -10.5%. For the compound `COc1cc(OC)c(NC(=O)Cn2c(=O)nc(-c3ccccc3)c3ccccc32)cc1Cl`, the “activity change, negative = inhibition” value was inactive: -10.6%.

As for `CC1=C(C(=O)Nc2cccc(F)c2)C2(CCCCCC2)OC1=O`, the “activity change, negative = inhibition” value was inactive: -16.6%.

Take `COc1cccc(Cn2c(=O)n(-c3cc(C)cc(C)c3)c(=O)c3oc4ccccc4c32)c1`: the “activity change, negative = inhibition” value was inactive: -13.8%.

Take `Cc1ccc2c(=O)c(C(=O)c3cccc(Cl)c3)cn(CC(=O)NCc3ccccc3)c2n1`: the “activity change, negative = inhibition” value was inactive: -4.07%. Turning to `CCOc1cc(CNC(=O)c2cc(-c3ccc(Cl)s3)nc3ccccc23)ccc1OC`, the “activity change, negative = inhibition” value is inactive: -3.37%. As for `COc1ccc(CCNC(=O)Cn2c(=O)cc(C(F)(F)F)c3c(C)nn(C)c32)c(OC)c1`, the “activity change, negative = inhibition” value was inactive: -2.41%. Take `Cc1ccc(N2CCN(S(=O)(=O)c3nnc(NC(=O)c4cccc(F)c4)s3)CC2)cc1`: the “activity change, negative = inhibition” value was inactive: -29.2%. As for `O=C(Cn1cccc1C(=O)c1ccccc1)NCc1ccc(Cl)cc1`, the figure is inactive: -6.54%.

In the case of `COc1ccc(NC(=O)CNC(=O)Cn2ccc3ccccc3c2=O)c(OC)c1`, the “activity change, negative = inhibition” value is inactive: -4.59%. To `CCCN1CCN(CCCNC(=O)c2cc3c(=O)[nH]c4ccccc4c3s2)CC1` belongs inactive: -13.7%; to `Cc1ccc(CNC(=O)c2cnc(N3CCCC3)nc2C)cc1`, inactive: -23.9%. In the case of `CCc1ccccc1NC(=O)c1nnn(CC(=O)Nc2c(C)cc(C)cc2C)c1N`, the “activity change, negative = inhibition” value was inactive: -10.5%. With `Cc1cc(C)c2c(NC(=O)c3ccccc3Cl)c(C(=O)Nc3ccc(C)c(C)c3)sc2n1`, the “activity change, negative = inhibition” value is inactive: 40%. As to `COc1cc(CNCCSc2nnnn2C)ccc1OCc1ccccc1`, the “activity change, negative = inhibition” value is inactive: 9.36%. As for `C[C@@H]1[C@H](C)CC[C@]2(C(=O)O)CC[C@]3(C)C(=CC[C@@H]4[C@@]5(C)C[C@@H](O)[C@H](O)[C@@](C)(CO)[C@H]5CC[C@]43C)[C@@H]12`, the “activity change, negative = inhibition” value is inactive: -4.94%. To `Cc1ccc2nc3sc(C(=O)Nc4ccc(F)cc4)cc3cc2c1` belongs inactive: 30.9%. With `CCOC(=O)c1cc(S(=O)(=O)N2CCN(c3cccc(C)c3)C(C)C2)[nH]n1` (configuration not stated), the “activity change, negative = inhibition” value is inactive: -13.4%. As for `COC(=O)c1ccc(NC(=O)C(C)N2Cc3ccccc3C2=O)cc1` (configuration not stated), the figure is inactive: -20.3%; as for `COc1ccc(N2CCN(C(=O)c3c(C)oc4ncn(CC(C)C)c(=O)c34)CC2)cc1`, inactive: -0.644%; as for `N[C@H]1C(O)O[C@H](CO)[C@@H](O)[C@@H]1O` (some centres not stated), inactive: 9.16%. Take `CCn1cc(C(=O)N2CCN(c3ccccc3OC)CC2)c2cc(OC)c(OC)cc2c1=O`: the “activity change, negative = inhibition” value was inactive: -4.23%. `CCC(Oc1ccccc1)C(=O)Nc1nnc(S(=O)(=O)N2CCCC2)s1` (configuration not stated): the “activity change, negative = inhibition” value was inactive: -14.9%. Turning to `CCc1ccc(OCC(=O)Nc2c(C(=O)c3ccc(Br)cc3)oc3ccccc23)cc1`, the “activity change, negative = inhibition” value was inactive: -5.04%. With `OC[C@H]1O[C@@H](n2cnc3c2NC=NC[C@@H]3O)C[C@H]1O`, the “activity change, negative = inhibition” value was inactive: -8.53%. For `CCOc1cccc2sc(=NC(=O)c3ccc(S(=O)(=O)N4CCOCC4)cc3)n(C)c12`, the “activity change, negative = inhibition” value was inactive: -18.5%. Regarding `CCCCN(CCCC)CCn1cnc2c([nH]c3ccc(OC)cc32)c1=O`, the “activity change, negative = inhibition” value was inactive: -18.6%. As for `COc1ccc(NC(=O)c2oc3ccccc3c2NC(=O)c2cc(=O)c3ccccc3o2)cc1`, the “activity change, negative = inhibition” value was inactive: 1.3%.

In the case of `COc1ccc(CNC(=O)c2ccc(-c3nc(CSc4ccccc4)c(C)o3)cc2)cc1`, the “activity change, negative = inhibition” value is inactive: -20.2%. For the compound `Cc1ccc2c(c1)-c1nc(-c3ccccc3)cc(-c3ccccc3)c1CO2`, the “activity change, negative = inhibition” value is inactive: -7.04%.

`C=C1C[C@H]2[C@@H]3C=C(C)C4=CC(=O)CC[C@]4(C)[C@H]3CC[C@]2(C)[C@@]1(OC(C)=O)C(C)=O`: the “activity change, negative = inhibition” value was inactive: -18.6%.
